Among all 45,000 compounds or so, about 65 (0.1%) were called active. The call rests on the fitted dose curve; in most records, active means well fitted activation curve with a large enough effect; inconclusive means small, poorly fitted or top-dose-only effect; inactive means no such curve, though single readings can be large or run the other way. The list shows a part of the results.
The compounds below were run against Galactocerebrosidase (Homo sapiens) (UniProt P54803) (assay: A Novel Cell-Based Assay to Identify Small Molecules for B -Galactocerebrosidase). Settings: 145M-Twi-hGALC-G270D cells (Twitcher mouse brain line with human GALC G270D), HMU-beta-Gal fluorescence, 48 h; series mostly up to 57.5 µM; activation: at the top concentration.
Procedure, shortened: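 Live 145M-Twi cells (Twitcher mouse brain-derived, GALC-null) stably expressing human GALC-G270D, with a wild-type GALC line, were compound-treated. Residual GALC activity was then read as fluorescence from 0.1 mM final HMU-β-gal at pH 5.2; higher signal means activation.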
Further: 0% is about no effect; nearly all actives have a fitted effect of over 65% in size.

Sequence of UniProt P54803 (P54803 whole entry, looked up): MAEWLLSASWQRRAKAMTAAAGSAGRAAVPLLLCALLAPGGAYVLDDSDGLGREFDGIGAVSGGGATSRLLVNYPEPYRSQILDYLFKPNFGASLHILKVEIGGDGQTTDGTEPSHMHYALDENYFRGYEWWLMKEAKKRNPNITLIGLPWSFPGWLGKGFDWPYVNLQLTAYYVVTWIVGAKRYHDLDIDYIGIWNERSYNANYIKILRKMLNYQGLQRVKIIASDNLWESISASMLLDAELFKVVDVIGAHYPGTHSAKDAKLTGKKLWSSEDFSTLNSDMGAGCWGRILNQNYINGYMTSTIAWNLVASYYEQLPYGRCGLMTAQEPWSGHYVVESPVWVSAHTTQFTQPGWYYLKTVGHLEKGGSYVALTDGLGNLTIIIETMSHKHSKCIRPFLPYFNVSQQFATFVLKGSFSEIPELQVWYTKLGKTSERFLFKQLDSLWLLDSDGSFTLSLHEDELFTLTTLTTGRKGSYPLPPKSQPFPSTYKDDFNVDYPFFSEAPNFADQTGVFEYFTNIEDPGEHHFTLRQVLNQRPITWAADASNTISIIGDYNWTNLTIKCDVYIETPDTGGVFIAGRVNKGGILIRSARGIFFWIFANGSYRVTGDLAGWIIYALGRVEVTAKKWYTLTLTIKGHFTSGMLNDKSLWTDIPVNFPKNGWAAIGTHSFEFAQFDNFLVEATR

activation, inactive:
CN1CCN(C(c2cccc(Br)c2)c2sc3nc(-c4ccco4)nn3c2O)CC1 (configuration not stated) -1.72%
CCC(=O)N1CCc2cc(Br)cc(S(=O)(=O)CCC(=O)NCCc3ccccc3Cl)c21 -14.7%
CCOc1ccc(-c2nonc2NC(=O)c2ccc(C)cc2)cc1OCC -21.8%
O=C(Cn1nc(Cc2cccnc2)c2ccccc2c1=O)Nc1cccc(C(F)(F)F)c1 -33.1%
CCc1cccc(-n2nnc(-c3nc(-c4cccs4)no3)c2N)c1 -24.5%
CCC(=O)OCCCNc1nc(-c2ccc(Cl)cc2)nc2ccccc12 2.34%
CC(=O)N1CCCc2cc(S(=O)(=O)N3CCN(c4ccc(F)cc4)CC3)ccc21 -12.3%
COc1ccc(NC(=O)c2noc3c2CSc2ccccc2-3)cc1Cl 1.82%
COc1cccc(OC)c1C(=O)Nc1cccc(-c2nc3cc(C)cc(C)c3o2)c1 -17.3%
Clc1ccc2nc(-c3ccc(Br)o3)c(Nc3ccc4c(c3)OCCO4)n2c1 8.03%
O=C(CSc1nc2ccsc2c(=O)n1Cc1ccccc1F)NCc1ccccc1 0.317%
COc1ccc(S(=O)(=O)N(C)Cc2nc(-c3cccc(C)c3)no2)cc1 -13.6%
CCc1ccc(NC(=O)N(Cc2ccc(C)cc2)Cc2cccn2-c2nnc(N3CCCC3=O)s2)cc1 -3.11%
CCc1ccc(NC(=O)CN2C(=O)C(c3ccccc3)=NC23CCCCCC3)cc1 -25.8%
CCCc1cc(=O)n2[nH]c(-c3ccc(C)cc3)nc2n1 -16.8%
Cc1ccc(NC(=O)N2CCC(CN3CCC(C)CC3)CC2)cc1F -7.66%
COc1ccc(-c2cc(C(F)(F)F)nc(SCC(=O)NCCc3ccc(OC)c(OC)c3)n2)cc1 -15%
COc1cccc(CNC(=O)C(NS(=O)(=O)c2ccc3nc(C)sc3c2)C(C)C)c1 (configuration not stated) 7%
Cc1ccc(NC(=O)C2CCCN(c3nnc(-n4c(C)ccc4C)s3)C2)cc1Cl (configuration not stated) -6.27%
Cc1ccc2nc(CSc3nnc(NC(=O)COc4ccccc4)s3)cc(=O)n2c1 -10.1%
CCOC(=O)c1c(C)c(-c2ccccc2)n(CC(=O)NCCc2ccc(C)cc2)c1C -10.3%
CCCCc1ccc(NC(=O)COc2cccc3c(=O)n(C)ccc23)cc1 -14.5%
CCOC(=O)c1ccc(NC(=O)c2cc(=O)c3cc(CC)ccc3o2)cc1 -6.84%
CCS(=O)(=O)NCC(c1ccco1)N1CCN(c2ccc(OC)cc2)CC1 (configuration not stated) 0.446%
CCN(CC)c1ccc(-n2nc3cc(C)c(NC(=O)c4ccccc4F)cc3n2)cc1 -0.935%
Cc1ccccc1CN1c2ccccc2-c2nc(SCC(=O)NCCc3ccccc3)ncc2S1(=O)=O -5.16%
Cc1ccc(C(CC(=O)Nc2cc(C)cc(C)c2)N2Cc3ccccc3C2=O)cc1 (configuration not stated) -29.9%
